Screen size: about 340,000 compounds; about 6,900 (2%) were called active. Cut-off read from the data, not from the text of the source: active = inhibition above about 30%; inactive = below that, where a call was filed. The entries are a selection whose mix differs from that of the whole data set. Entries without a call were filed so in the source.
Molecular target: D(2) dopamine receptor (Homo sapiens) (UniProt P14416)
Test: HTS Assay for Allosteric Antagonists of the Human D2 Dopamine Receptor: Primary Screen for Antagonists; note: 0% is about no effect
Details: HEK293 TREx D2 cells, calcium flux, dopamine EC80; at 10 µM; stronger effect = higher value
In short: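 Antagonism is scored as inhibition of an EC80 dopamine-evoked calcium signal in a force-coupled, tetracycline-inducible HEK293 T-REx D2 line, with compound present 180 s before agonist.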

UniProt P14416, sequence (P14416 whole entry, looked up): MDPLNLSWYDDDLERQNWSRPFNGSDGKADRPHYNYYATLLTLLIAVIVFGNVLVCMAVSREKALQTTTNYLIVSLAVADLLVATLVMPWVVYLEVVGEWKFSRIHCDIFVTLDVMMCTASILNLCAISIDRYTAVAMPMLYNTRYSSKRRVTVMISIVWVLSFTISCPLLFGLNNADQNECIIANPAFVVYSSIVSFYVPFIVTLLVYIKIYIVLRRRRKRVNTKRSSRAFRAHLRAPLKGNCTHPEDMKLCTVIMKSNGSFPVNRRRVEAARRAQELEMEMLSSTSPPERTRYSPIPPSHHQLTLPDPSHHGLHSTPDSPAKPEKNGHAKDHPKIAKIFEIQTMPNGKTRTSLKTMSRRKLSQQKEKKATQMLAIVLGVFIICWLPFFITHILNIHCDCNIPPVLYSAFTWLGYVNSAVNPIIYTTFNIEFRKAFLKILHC

Row | SMILES | inhibition
1 | O=C(Nc1ccc(Cl)cc1)c1ccc2c(c1)N(Cc1ccccc1)C(=O)c1ccccc1S2(=O)=O | -6.42%
2 | Cc1cc2oc(C(=O)Nc3cccc(-c4nc5ccccc5o4)c3)c(C)c2cc1Cl | -1.83%
3 | CCOc1ccccc1CNC(=O)CC(C)n1ccc(C)n1 (stereo not drawn) | 8.92%
4 | CCc1nn(CC(=O)NCc2cccc(OC)c2OC)c(=O)c2cc3occc3n12 | 6.35%
5 | Cc1ccc(C(=O)COC(=O)C(Cc2c[nH]c3ccccc23)NC(=O)c2ccc(Br)cc2)cc1 (stereo not drawn) | 1.42%
6 | O=C(COC(=O)CCNS(=O)(=O)c1ccccc1F)Nc1nnc(-c2ccccc2)o1 | active: 31.5%
7 | O=C(NCCCO)C(=O)Nc1c2c(nn1-c1ccc(F)cc1)CSC2 | 26.6%
8 | Cc1nnc(N2CCC(C(=O)NCc3ccc(N(C)C)cc3)CC2)c2nn(-c3ccccc3)c(C)c12 | -9.86%
9 | COc1ccc(NC(=O)C2=C(C)Nc3nc(SC)nn3C2c2cc(OC)ccc2OC)cc1 (stereo not drawn) | 5.04%
10 | Cn1c(=O)c2sccc2n2c(CCCC(=O)Nc3ccc(F)c(F)c3)nnc12 | 0.854%
11 | COc1cccc(-c2nc(S(=O)(=O)c3ccccc3)c(NCc3ccccc3)o2)c1 | 8.06%
12 | COc1cccc(-c2cc(C(F)(F)F)nc(NCc3ccc(F)cc3)n2)c1 | 5.14%
13 | COc1ccc(CCNC(=O)c2ccc3c(c2)nc2n3CCOC2)cc1OC | 15.4%
14 | O=C(NCCSCc1ccco1)Nc1cc(Cl)cc(Cl)c1 | active: 30.3%
15 | COc1ccc(C(=O)/C=C/c2cn(CC(O)CN(CC(C)C)CC(C)C)c3ccccc23)cc1OC (stereo not drawn) | 20.9%
16 | Cc1c(C(=O)Nc2ccc(F)cc2F)nnn1-c1ccccc1Br | 14.7%
17 | CC1=C(C(=O)Nc2ccccc2)C(c2ccncc2)n2nc(SCc3ccccc3)nc2N1 (stereo not drawn) | 10.8%
18 | COCCCNC(=O)c1c(C)nn(-c2ccc(F)cc2)c1-n1cccc1 | -4.16%
19 | Cc1cccc(NC(=O)c2sc3cccc(Cl)c3c2Cl)c1 | -1.66%
20 | COc1ccc(CNC(=O)Cc2c(C)c3ccc(O)cc3oc2=O)cc1 | 20.3%
21 | CNC(=O)c1c(NC(=O)c2cc(=O)c3ccccc3o2)sc2c1CCC2 | 2.18%
22 | Cc1ccc(C)c(N2CCN(C(=O)CN3C(=S)NC(C)(C)CC3C)CC2)c1 (stereo not drawn) | active: 41.5%
23 | COc1ccc(-c2nc3ccccc3s2)cc1NC(=O)c1ccccc1OC | 8.21%
24 | CCCCNC(=O)CSc1c2c(nc3ccc(Cl)cc13)CCCC2 | -7.34%
25 | Cc1cccc(OCCn2nnc3sc4c(c3c2=O)CCCC4)c1 | -1.29%

Row | SMILES | inhibition
26 | CCOc1ccc(CNCCNC(=O)c2nonc2N)cc1 | -4.95%
27 | CC(C)c1ccc(NS(=O)(=O)c2ccc3[nH]cc(C(=O)NC4CCCCC4)c(=O)c3c2)cc1 | 0.684%
28 | CC1=C(C(=O)Nc2ccc(C)cc2C)C(c2ccc(C(C)C)cc2)n2nc(C(F)(F)F)nc2N1 (stereo not drawn) | 10.1%
29 | CCOC(=O)c1sc(NC(=O)c2nc(SC)ncc2Cl)c(C(=O)OCC)c1C | -3.74%
30 | Cc1cccc(-n2cc(-c3ccccc3)nc2SCC(=O)Nc2ccccc2Cl)c1 | 12.2%
31 | Cc1oc2ncn(CC(C)C)c(=O)c2c1C(=O)Nc1ccc(Cl)cn1 | -8.03%
32 | FC(F)Sc1ccc(NC(=S)NCC2CCCCC2)cc1 | active: 31.9%
33 | Cc1ccc(C)c(S(=O)(=O)NCC(c2ccc(N(C)C)cc2)N2CCOCC2)c1 (stereo not drawn) | 3.04%
34 | CC(C)(C)OC(=O)N1CCC(c2c(C(=O)N3CCN(C4CCCCC4)CC3)cnn2-c2cccc(Cl)c2)CC1 | -1.98%
35 | COc1ccc(NC(=O)CSC2=Nc3ccccc3C3=NC(CCC(=O)NCCc4ccccc4)C(=O)N23)cc1 (stereo not drawn) | -1.1%
36 | Cc1oc2ncn(C)c(=O)c2c1C(=O)N(C)c1ccccc1F | 0.331%
37 | COC(=O)c1ccc(NS(=O)(=O)c2ccc3[nH]c4c(c3c2)CCCCC4)cc1 | 4.44%
38 | CCCCCCNCc1ccc(Br)cc1 | active: 30.4%
39 | CCOC(=O)N1CCC(NC(=O)c2cnn(-c3cccc(C)c3)c2-n2cccc2)CC1 | 3.06%
40 | COc1ccc(NC(=O)Nc2cn(CC(C)C)c(=O)c3ccccc23)c(OC)c1 | -6.1%
41 | O=C1C2=C(Nc3ccccc3SC2c2c(F)cccc2Cl)c2ccccc21 (stereo not drawn) | 2.07%
42 | O=C(NCCc1ccc(F)cc1)C(=O)NCC(c1cccs1)S(=O)(=O)c1cccs1 (stereo not drawn) | -24.3%
43 | Fc1cccc(CN2CCC(Cc3ccccc3)CC2)c1 | active: 55.7%
44 | COc1ccc(-c2cc(-c3ccccc3)nc3c2COc2ccc(Cl)cc2-3)cc1 | -5.04%
45 | COc1ccc2[nH]cc(CCNC(=O)Nc3ccccc3C)c2c1 | 10.7%
46 | CC1CCN(S(=O)(=O)c2ccc3nc(-c4cccnc4)cc(C(=O)NCCCOC(C)C)c3c2)CC1 | 19.6%
47 | Cc1ccc(Cl)cc1NC(=O)c1oc2ccc(S(=O)(=O)N3CCC4(CC3)OCCO4)cc2c1C | 16.1%
48 | COc1ccc(C)cc1NC(=O)CN1CCN(CC(=O)Nc2ccccc2F)CC1 | 15%
49 | COc1cc(CN2CCc3nc(Nc4ccc5c(c4)OCCO5)ncc3C2)cc(OC)c1OC | -4.49%
50 | Cc1ccc(Cn2c(C)c(CNC3CCCCC3)c(C(=O)O)c2C)cc1 | -0.879%

Row | SMILES | inhibition
51 | CCC(=O)N1CCc2cc(S(=O)(=O)NC(C(=O)NCc3ccc(OC)cc3)C(C)C)ccc21 (stereo not drawn) | -1.6%
52 | COc1ccc(OC)c(CCNC(=O)CCCc2nnc3n(C)c(=O)c4sccc4n23)c1 | 2.71%
53 | COc1ccc(CCNc2nc3c(c(=O)n(C)c(=O)n3C)n2Cc2ccc(F)cc2)cc1OC | 1.26%
54 | CCc1ccccc1NC(=O)CC(c1ccc(F)cc1)N1Cc2ccccc2C1=O (stereo not drawn) | -0.887%
55 | COC(=O)c1ccc(NC(=O)c2nn(C)c3c2CS(=O)(=O)c2ccccc2-3)cc1 | -16.3%
56 | COc1cccc(NC(=S)Nc2cc(C)cc(C)n2)c1 | active: 44.4%
57 | COc1ccc(CNC(=O)CCc2c(C)nc3c(c2C)c(=O)n(C)c(=O)n3C)cc1 | -10.9%
58 | CCn1cc(C(=O)NCCc2ccccc2)c(=O)c2cc(S(=O)(=O)N3CCOCC3)ccc21 | -6.77%
59 | Cc1cccc(-n2ccnc2SCC(=O)Nc2ccccc2C(F)(F)F)c1 | 12.8%
60 | O=C(CSc1nc2ccccc2n1Cc1ccc(F)c(Cl)c1)N1CCN(c2ccc(F)cc2)CC1 | -14.8%
61 | CCc1ccc(NC(=O)CSC2=Nc3ccccc3C3=NC(CCC(=O)NCc4cccs4)C(=O)N23)cc1 (stereo not drawn) | -2.61%
62 | CCCc1nn2c(=O)cc(COC(=O)c3ccc(NC(=O)c4cccs4)cc3)nc2s1 | 6.06%
63 | O=C(Nc1c(C(=O)N2CCN(c3ccc(F)cc3)CC2)oc2ccccc12)c1ccco1 | -5.63%
64 | COc1ccc(NC(=O)c2c(C)oc3ccc(O)c(CN4CCN(C)CC4)c23)cc1Cl | 9.79%
65 | COc1ccc(CCNC(=O)c2ccc(CS(=O)(=O)c3ccc(C)cc3)o2)cc1OC | 2.35%
66 | COc1cccc(N2CCN(S(=O)(=O)c3ccc(-c4cnc(C5CC5)o4)cc3)CC2)c1 | -8.38%
67 | Cc1ccc(-c2nnc(Nc3ccc(C(N)=O)cc3)c3ccccc23)cc1S(=O)(=O)N1CCCCC1 | 7.17%
68 | COc1ccccc1CNC(=O)c1c2c(nc3ccccc13)C(=O)N(C1CCCCC1)C2 | -16.8%
69 | CSc1cccc(NC(=O)CN(C)S(=O)(=O)c2ccc3c(c2)n(C)c(=O)c(=O)n3C)c1 | 0.135%
70 | Cc1nn2c(=O)cc(COC(=O)c3ccc(C(C)(C)C)cc3)nc2s1 | -1.7%
71 | O=c1ccc2cc(S(=O)(=O)N3CCCC3)ccc2[nH]1 | 5.2%
72 | COc1cc(NC(=O)c2ccc(C(=O)Nc3cc(OC)c(Cl)cc3OC)cc2)c(OC)cc1Cl | -14.2%
73 | CCCN1CCN(CCCNC(=O)Cn2nc(C)n3c(cc4cc(F)ccc43)c2=O)CC1 | 20.9%
74 | CCC(=O)N1CCc2cc(Br)cc(S(=O)(=O)CCC(=O)NCc3ccccc3)c21 | 0.343%
75 | COc1cccc(NC(=O)c2cc(CN3CCOCC3)on2)c1 | 10.2%

Row | SMILES | inhibition
76 | Cc1cccc(NC2=NCC(=O)N2CCc2ccccc2)c1 | active: 37.3%
77 | Cc1oc(-c2cccc(F)c2)nc1CN1CCCCC1CCn1cccn1 (stereo not drawn) | active: 45.2%
78 | CCOc1ccc(CNC(=O)COc2cc(=O)n(C)c3ccccc23)cc1 | 2.79%
79 | CC1=C(C(=O)Nc2ccc(C)cc2)C(c2ccccc2Cl)n2nnnc2N1 (stereo not drawn) | 4.22%
80 | Cc1ccc(NC(=O)c2cc(-c3ccc4c(c3)OCO4)on2)cc1 | -17.5%
81 | COc1ccc(-c2csc(C)n2)cc1Br | active: 36.4%
82 | Cc1oc(-c2ccccc2)nc1CSc1nc2c(c(=O)[nH]1)CCC2 | active: 35.1%
83 | Fc1ccc(CNc2nc3c(-c4ccc(F)cc4)nnn3c3ccccc23)cc1 | -1.6%
84 | Cc1ccc(NC(=O)NCCc2c(C)nn(C)c2C)c(Cl)c1 | -2.45%
85 | COc1cc(C(=O)NCc2ccc3c(c2)CCN3C(=O)c2ccncc2)cc(OC)c1OC | 23.4%
86 | COCCCNC(=O)CN1C(=O)c2c(c3ccccc3n2C)C1c1ccc(OC)cc1 (stereo not drawn) | 14.7%
87 | COc1cccc(/C=C/c2nc(C#N)c(N(C)Cc3ccccc3)o2)c1 | -7.67%
88 | COc1ccc(-c2noc(CSCC(=O)Nc3ccc(C)cc3Br)n2)cc1OC | -10.8%
89 | CCCCSc1ncnc2c1sc1nc(N3CCOCC3)c3c(c12)CCCC3 | 5.46%
90 | Cc1ccccc1Nc1c(-c2c(F)cccc2Cl)nc2ccc(Br)cn12 | 1.74%
91 | Cc1c(C(=O)Nc2cccc(C(F)(F)F)c2)sc2nc[nH]c(=O)c12 | 12.6%
92 | CCOC(=O)c1ccc(NC(=O)CCCn2c(=O)c3cccn3c3ccccc32)cc1 | -23.9%
93 | Cc1cc(NC(=O)CSc2nnc(-c3ccccc3)c(-c3ccccc3)n2)no1 | active: 80.5%
94 | COc1cc(OC)cc(C(=O)Nc2ccc(-c3nc4ccccc4s3)cc2C)c1 | -17.7%
95 | COCC(=O)n1nc(-c2ccco2)nc1NCc1ccccc1Cl | -13.8%
96 | CCOC(=O)c1ccc(NC(=O)Cn2cc(C(=O)C3CC3)c3ccccc32)cc1 | 13.7%
97 | C=CCc1cccc2cc(-c3nc4ccc(C)cc4[nH]3)c(=O)oc12 | 7.64%
98 | CCc1nn(CC(=O)NCc2ccco2)c(=O)c2cc3c(OC)cccc3n12 | 10.2%

— PubChem BioAssay AID485344 (National Center for Advancing Translational Sciences (NCATS), 2010)
